Assay results from patent publication US20230338478A1 (University of Pennsylvania, published 2023).

B1: hAce2-Variant1-IgG4 soluble decoy fusion protein (Fc fusion)
chain: QSTIEEQAKTFLDMFNHKAEDLFYQSSLAAWNYNTNITEENVQNMNNAGDKWSAFLKEQSTFAQMYPLQEIQNPTVKLQLQALQQNGSSVLSEDKSKRLNTILNTMSTIYSTGKVCNPDNPQECLLLEPGLNEIMANSLDYNERLWAWESWRSEVGKQLRPLYEEYVVLKNEMARANHYEDYGDYWRGDYEVNGVDGYDYSRGQLIEDVEHTFEEIKPLYEHLHAYVRAKLMNAYPSYISPIGCLPAHLLGDMWGRFWTNLYSLTVPFGQKPNIDVTDAMVDQAWDAQRIFKEAEKFFVSVGLPNMTQGFWEYSMLTDPGNVQKAVCHPTAWDLGKGDFRILMCTKVTMDDFLTAHHEMGHIQYDMAYAAQPFLLRNGANEGFHEAVGEIMSLSAATPKHLKSIGLLSPDFQEDNETEINFLLKQALTIVGTLPFTYMLEKWRWMVFKGEIPKDQWMKKWWEMKREIVGVVEPVPHDETYCDPASLFHVSNDYSFIRYYTRTLYQFQFQEALCQAAKHEGPLHKCDISNSTEAGQKLFNMLRLGKSEPWTLALENVVGAKNMNVRPLLNYFEPLFTWLKDQNKNSFVGWSTDWSPYAD[gap - human IgG4 Fc and a few adjoining residues]
B2: hAce2-Variant2-IgG1 soluble decoy fusion protein (Fc fusion)
chain: QSTIEEQAKTFLDMFNHKAEDLFYQSSLAAWNYNTNITEENVQNMNNAGDKWSAFLKEQSTFAQMYPLQEIQNPTVKLQLQALQQNGSSVLSEDKSKRLNTILNTMSTIYSTGKVCNPDNPQECLLLEPGLNEIMANSLDYNERLWAWESWRSEVGKQLRPLYEEYVVLKNEMARANHYEDYGDYWRGDYEVNGVDGYDYSRGQLIEDVEHTFEEIKPLYEHLHAYVRAKLMNAYPSYISPIGCLPAHLLGDMWGRFWTNLYSLTVPFGQKPNIDVTDAMVDQAWDAQRIFKEAEKFFVSVGLPNMTQGFWEYSMLTDPGNVQKAVCLPTAWDLGKGDFRILMCTKVTMDDFLTAHHEMGHIQYDMAYAAQPFLLRNGANEGFHEAVGEIMSLSAATPKHLKSIGLLSPDFQEDNETEINFLLKQALTIVGTLPFTYMLEKWRWMVFKGEIPKDQWMKKWWEMKREIVGVVEPVPHDETYCDPASLFHVSNDYSFIRYYTRTLYQFQFQEALCQAAKHEGPLHKCDISNSTEAGQKLFNMLRLGKSEPWTLALENVVGAKNMNVRPLLNYFEPLFTWLKDQNKNSFVGWSTDWSPYAD[gap - human IgG1 Fc]

What was measured:
[1] = biological target: T1, SARS-CoV-2 spike, Wuhan (A.1), on pseudotyped lentivirus (SARS-CoV-2); test: cell-based or functional assay
[2] = biological target: T2, yeast-displayed SARS-CoV-2 (Wuhan-Hu-1) RBD (SARS-CoV-2); test: yeast display flow cytometry, titration of decoy on RBD yeast
T2 construct: range […]

[3] = biological target: SARS-CoV-2 spike delta on pseudotyped lentivirus (SARS-CoV-2); test: cell-based or functional assay
[4] = biological target: T1, SARS-CoV-2 spike, Wuhan (A.1), on …; test: cell-based or functional assay; remark: listed apart in the source
[5] = biological target: T3, CoV-2 Wuhan-Hu1 spike RBD (BLI analyte) (SARS-CoV-2); test: BLI, decoy immobilized as ligand, RBD as analyte
T3 construct: domain: RBD

[6] = biological target: T4, yeast-displayed SARS-CoV-2 Omicron BA.1 RBD (SARS-CoV-2); test: yeast-displayed RBD, decoy titration, flow cytometry
T4 construct: range […]

[7] = biological target: T5, yeast-displayed SARS-CoV-2 Delta + RBD (SARS-CoV-2); test: as above
T5 construct: range […]

[8] = biological target: T6, yeast-displayed SARS-CoV-2 Delta RBD (SARS-CoV-2); test: as above
T6 construct: range […]

[9] = biological target: T7, yeast-displayed SARS-CoV-2 Lambda RBD (SARS-CoV-2); test: as above
T7 construct: range […]

[10] = biological target: T8, yeast-displayed SARS-CoV-2 Mu RBD (SARS-CoV-2); test: as above
T8 construct: range […]

[11] = biological target: T9, yeast-displayed SARS-CoV-2 Omicron BA.2 RBD (SARS-CoV-2); test: as above
T9 construct: range […]

[12] = biological target: T2, yeast-displayed SARS-CoV-2 (Wuhan-Hu-1) …; test: as above
[13] = biological target: yeast-displayed NL63 RBD (human coronavirus NL63); test: as above
[14] = biological target: T2, yeast-displayed SARS-CoV-2 (Wuhan-Hu-1) …; test: as above; remark: listed apart in the source

Binder | IC50, neutralization assay [1] [µg/mL] | EC50 (read off the curve) [2] [nM] | IC50, pseudotyped lentivirus neutralization [3] [µg/mL] | IC50, pseudotyped lentivirus neutralization [4] [µg/mL] | Kd [5] [nM] | Kd [6] [nM] | Kd [7] [nM] | Kd [8] [nM] | Kd [9] [nM] | Kd [10] [nM] | Kd [11] [nM] | Kd [12] [nM] | Kd [13] [nM] | Kd [14] [nM]
B1 | 0.09 | – | – | – | – | – | – | – | – | – | – | – | – | –
B2 | – | ~0.1 | 0.019 | 0.019 | 0.21 | 0.031 | 0.21 | 0.21 | 0.2 | 0.1 | 0.024 | 0.14 | 0.22 | 0.16

Read-outs that look alike come from different tables or passages of the source.
